Experimental data from PubChem BioAssay AID493169 (National Center for Advancing Translational Sciences (NCATS), 2011).
Inconclusive means that the source gave no clear call. Such entries were picked first, then a sample of the others. Where the call is inconclusive, the potency comes from a doubtful curve fit. Calls of active or inactive are those of the source. Calls follow the shape of the dose curve; as a rule, active = well fitted inhibition curve with a large enough effect; inconclusive = small, poorly fitted or top-dose-only effect; inactive = flat fitted curve, though single readings scatter.

experiment: CHOP2 Reporter Counterscreen Assay for Inhibitors of Ubiquitin-specific Protease USP2a; details: purified enterokinase, fluorogenic substrate, 485/531 nm; series mostly up to 38.3 µM; activity change, negative = inhibition: at the top concentration;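 also: activated enterokinase alone at 50 pM in a cell-free format rather than USP2a or CHOP2; nearly all actives have a fitted effect of over 55% in size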
In short: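 Cell-free counterscreen with pre-activated enterokinase alone (50 pM final) in 20mM Tris-HCl pH 8.0, 2mM CaCl2, 2mM beta-mercaptoethanol, 0.05% CHAPS; compound preincubation 30 min RT, reporter substrate 25nM final, fluorescence read after 10 min (Ex 485/Em 531).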
% is scaled to controls: 0 for no effect and ±100 for the full control effect; potency is read from the fitted curve at half-maximal effect; tags tell the direction and shape of the fitted curve.

| SMILES | Potency | activity change, negative = inhibition |
| --- | --- | --- |
| O=[N+]([O-])c1ccc2nc(C(O)C(O)c3nc4ccc([N+](=O)[O-])cc4[nH]3)[nH]c2c1 (configuration not stated) | inconclusive: 28.2 µM [inhibitor, single point] | – |
| CCOC(=O)N1CCN(C(=O)CN(c2ccc(Oc3ccccc3)cc2)S(C)(=O)=O)CC1 | – | inactive: -1.23% |
| C=CCn1c(O)c(C(CC)=NCCN2CCOCC2)c(=O)[nH]c1=O | – | inactive: 6.89% |
| Cc1ccc(C(C)C)c(OCc2nn(CC(=O)c3ccc(OC(F)F)cc3)c3[n+]2CCCCC3)c1 | inconclusive: 20 µM [inhibitor, single point] | – |
| N#Cc1c(NC(=O)CSc2ncnc3sccc23)oc(-c2ccco2)c1-c1ccco1 | inconclusive: 8.91 µM [inhibitor, partial curve, poor fit] | – |
| COc1cc2c(ccc3cc(OC)c(OC)c(O)c32)cc1O | active: 5.62 µM | – |
| COC(=O)CC1Oc2ccc(C)cc2NC1=O (configuration not stated) | – | inactive: -0.941% |
| C=CCNCCOCCOc1ccccc1-c1ccccc1 | inconclusive: 28.2 µM [inhibitor, single point] | – |
| O=C(NCCc1ccccc1)c1ccc2nc(-c3ccco3)c(-c3ccco3)nc2c1 | active: 5.01 µM | – |
| O=C(Cc1cccs1)Nc1ccc(S(=O)(=O)N2CCCCC2)cc1 | active: 7.94 µM | – |
| O=C(O[C@@H]1OC2COC(=O)c3cc(O)c(O)c(O)c3-c3c(cc(O)c(O)c3O)C(=O)O[C@@H]([C@H]1O)[C@@H]2O)c1cc(O)c(O)c(O)c1 | inconclusive: 11.2 µM [inhibitor, partial curve, poor fit] | – |
| CCc1cc2c(=O)c(-c3nc4ccccc4n3C)coc2c(CN2CCCCC2C)c1O (configuration not stated) | inconclusive: 15.8 µM [inhibitor, single point] | – |
